{"source": "the supplement of paper PMC3334620", "note": "The full ranking holds about 33,000 sequences; the median of “E-score (-0.5 to 0.5)” is about -0.021, and the highest 2% start at about 0.32. This is one part of the list.", "data": [{"biological_target": "T1, Zap1 (UniProt P47043)", "T1 sequence": "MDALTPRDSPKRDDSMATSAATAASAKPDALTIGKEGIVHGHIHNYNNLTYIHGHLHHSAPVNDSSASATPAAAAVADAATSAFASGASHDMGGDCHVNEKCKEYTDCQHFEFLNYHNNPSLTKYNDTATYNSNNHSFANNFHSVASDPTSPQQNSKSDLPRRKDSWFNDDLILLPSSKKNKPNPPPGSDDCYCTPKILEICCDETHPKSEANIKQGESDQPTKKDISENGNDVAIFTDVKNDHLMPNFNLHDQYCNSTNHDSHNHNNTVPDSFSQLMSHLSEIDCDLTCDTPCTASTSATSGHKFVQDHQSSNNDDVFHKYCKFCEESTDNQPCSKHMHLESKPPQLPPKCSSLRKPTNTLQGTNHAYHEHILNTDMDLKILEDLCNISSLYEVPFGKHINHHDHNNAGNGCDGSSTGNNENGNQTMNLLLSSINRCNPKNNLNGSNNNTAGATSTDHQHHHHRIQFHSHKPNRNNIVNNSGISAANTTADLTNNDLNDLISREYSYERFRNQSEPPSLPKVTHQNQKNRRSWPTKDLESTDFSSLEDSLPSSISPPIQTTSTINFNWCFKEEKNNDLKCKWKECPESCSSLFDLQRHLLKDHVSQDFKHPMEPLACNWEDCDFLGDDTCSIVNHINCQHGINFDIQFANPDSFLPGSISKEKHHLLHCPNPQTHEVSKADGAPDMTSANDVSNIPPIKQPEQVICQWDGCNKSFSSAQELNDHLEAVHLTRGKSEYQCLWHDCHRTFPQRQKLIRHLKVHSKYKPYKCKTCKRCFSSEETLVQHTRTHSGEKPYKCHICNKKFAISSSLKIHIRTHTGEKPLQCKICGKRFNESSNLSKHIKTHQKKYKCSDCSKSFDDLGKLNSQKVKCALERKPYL", "experiment": "PBM E-score (8-mer binding enrichment) (E-score (-0.5 to 0.5)); higher = stronger / more preferred TF binding; most listed sequences are background and not binding sites", "details": "protein concentration: 200 nM; construct: GST-full length", "in_short": "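Yeast transcription factors, full-length or as DNA-binding domains, were expressed with a GST tag using PURExpress in vitro transcription/translation. At about 100-200 nM they were applied to universal all-10-mer Agilent arrays, double-stranded by primer extension on fresh or once-stripped slides. Fluorescent anti-GST detected bound protein, and masliner normalised the scans. E-scores for ungapped eight-base words, pooled with reverse complements, came from the Universal PBM Analysis Suite.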", "values": [{"sequence": "ACTACTGG", "PBM E-score": -0.128}, {"sequence": "ATCGAGGG", "PBM E-score": 0.0179}, {"sequence": "CTGTCAGC", "PBM E-score": -0.211}, {"sequence": "CGCAACCC", "PBM E-score": 0.379}, {"sequence": "GATGCGGA", "PBM E-score": -0.0728}, {"sequence": "CGTCCGCC", "PBM E-score": -0.166}, {"sequence": "GGGTGCAC", "PBM E-score": -0.0872}, {"sequence": "CCAGATCA", "PBM E-score": 0.0889}, {"sequence": "CCTGGAAC", "PBM E-score": -0.0392}, {"sequence": "ATAATACC", "PBM E-score": 0.188}, {"sequence": "GTCTCTCA", "PBM E-score": -0.0344}, {"sequence": "AGGTCAAC", "PBM E-score": 0.118}, {"sequence": "CCTGGCCA", "PBM E-score": -0.056}, {"sequence": "GCTAGAAC", "PBM E-score": -0.03}, {"sequence": "ATCGTCGA", "PBM E-score": -0.214}, {"sequence": "GGCTGTAC", "PBM E-score": -0.31}, {"sequence": "ATCGACCC", "PBM E-score": 0.0733}, {"sequence": "GGGCTGCA", "PBM E-score": -0.2}, {"sequence": "AAGGATGG", "PBM E-score": -0.0996}, {"sequence": "GGTAATGA", "PBM E-score": 0.255}, {"sequence": "CAAATTAG", "PBM E-score": 0.209}, {"sequence": "AAATGTTA", "PBM E-score": 0.0592}, {"sequence": "ACTGTCCC", "PBM E-score": -0.163}, {"sequence": "AAGAGGGC", "PBM E-score": -0.091}, {"sequence": "TAGTCGCA", "PBM E-score": -0.0884}, {"sequence": "CGAATGCG", "PBM E-score": -0.0632}, {"sequence": "CTCAGCCA", "PBM E-score": -0.13}, {"sequence": "TAATAAAA", "PBM E-score": 0.266}, {"sequence": "GCCAAAAC", "PBM E-score": 0.0209}, {"sequence": "CACACCCG", "PBM E-score": -0.0127}, {"sequence": "CAGGGCCA", "PBM E-score": -0.0969}, {"sequence": "CTGATTTC", "PBM E-score": -0.112}, {"sequence": "ACGATCCT", "PBM E-score": -0.175}, {"sequence": "AACGCTAT", "PBM E-score": -0.132}, {"sequence": "CAATATTC", "PBM E-score": -0.00773}, {"sequence": "CCAGGAAC", "PBM E-score": -0.243}, {"sequence": "ATGCGGGG", "PBM E-score": -0.137}, {"sequence": "CTCATTTA", "PBM E-score": -0.0145}, {"sequence": "CAGGATAA", "PBM E-score": 0.122}, {"sequence": "AGGTCCAA", "PBM E-score": 0.0416}, {"sequence": "AACGGATT", "PBM E-score": 0.01}, {"sequence": "TCAAGGCA", "PBM E-score": -0.00733}, {"sequence": "GCAATGGC", "PBM E-score": -0.203}, {"sequence": "AGCCAGAA", "PBM E-score": -0.0361}, {"sequence": "CCTCGGAG", "PBM E-score": 0.0286}, {"sequence": "AGACAGTC", "PBM E-score": -0.252}, {"sequence": "AACTGAAG", "PBM E-score": 0.0753}, {"sequence": "CTCGGGAC", "PBM E-score": -0.0983}, {"sequence": "ACGGTGCA", "PBM E-score": 0.0193}, {"sequence": "ACTGGGCG", "PBM E-score": -0.138}, {"sequence": "TACTGTGA", "PBM E-score": 0.164}, {"sequence": "ACGTTGTA", "PBM E-score": -0.13}, {"sequence": "GGGACACC", "PBM E-score": 0.0204}, {"sequence": "CAAGTGCC", "PBM E-score": -0.261}, {"sequence": "ACCGATAG", "PBM E-score": 0.00318}, {"sequence": "TACAAAGA", "PBM E-score": 0.124}, {"sequence": "CCGGACCG", "PBM E-score": -0.129}, {"sequence": "AGCAATCC", "PBM E-score": -0.185}, {"sequence": "GCTTGAAC", "PBM E-score": 0.0357}, {"sequence": "CATCAGAG", "PBM E-score": -0.103}, {"sequence": "CCGGCGGA", "PBM E-score": -0.0497}, {"sequence": "GTAGATAA", "PBM E-score": 0.16}, {"sequence": "ATATCAGA", "PBM E-score": 0.0906}, {"sequence": "TCCTCCGA", "PBM E-score": -0.226}, {"sequence": "CGTGTTTC", "PBM E-score": -0.0154}, {"sequence": "TCGCCGAA", "PBM E-score": -0.0926}, {"sequence": "ACACAAGT", "PBM E-score": -0.0103}, {"sequence": "TAAGTCCA", "PBM E-score": -0.0588}, {"sequence": "ATTCTCTA", "PBM E-score": -0.0522}, {"sequence": "CCAGATGC", "PBM E-score": -0.0582}, {"sequence": "GACGCCCC", "PBM E-score": -0.125}, {"sequence": "CCAAAGAC", "PBM E-score": 0.00166}, {"sequence": "ATCGCCAG", "PBM E-score": -0.293}, {"sequence": "ATAACCAG", "PBM E-score": 0.436}, {"sequence": "AAGCGTAG", "PBM E-score": -0.19}, {"sequence": "AATGAGAT", "PBM E-score": 0.149}, {"sequence": "GCTAGACC", "PBM E-score": -0.149}, {"sequence": "GTTACGTA", "PBM E-score": 0.124}, {"sequence": "CATAGAAA", "PBM E-score": 0.203}, {"sequence": "ATGCAGGA", "PBM E-score": -0.175}, {"sequence": "AGCTCCCT", "PBM E-score": -0.284}, {"sequence": "GCTCTGGA", "PBM E-score": -0.0859}, {"sequence": "AGCGATCC", "PBM E-score": 0.0335}, {"sequence": "AACGATGT", "PBM E-score": 0.00501}, {"sequence": "CAGGCATG", "PBM E-score": -0.0885}, {"sequence": "CAGCGACG", "PBM E-score": -0.248}, {"sequence": "CGCAAGAC", "PBM E-score": -0.129}, {"sequence": "AGGAGACG", "PBM E-score": -0.379}, {"sequence": "GCGGGATA", "PBM E-score": -0.037}, {"sequence": "CCACACAG", "PBM E-score": -0.0335}, {"sequence": "GCCATATA", "PBM E-score": 0.0242}, {"sequence": "ATACATAA", "PBM E-score": 0.173}, {"sequence": "CCAATTCA", "PBM E-score": 0.00723}, {"sequence": "CTTAAGTA", "PBM E-score": -0.0613}]}]}
